From the RNAGym collection of RNA variant scans (doi:10.1073/pnas.2313332121)
Variants at the floor of the assay are shown more often than the library holds them.

B1: TPR 5TU (parent)
chain: GGAUCUUCUCGAUCUAACAAAAAAGACAAAUCUGCCACAAAGCUUGAGAGCAUCUUCGGAUGCAGAGGCGGCAGCCUUCGGUGGCGCGAUAGCGCCAACGUUCUCAACUAUGACACGCAAAACGCGUGCUCCGUUGAAUGGAGUUUAUCAUG

Variants of: B1
Test: polymerase ribozyme fitness, log enrichment relative to wild type (log ratio); higher = more active; in vitro selection for triplet polymerase activity
Procedure, shortened: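 Only genotypes with ≥10 input reads and ≥1 read per output were kept after Illumina sequencing of input and output libraries. These libraries were PCR-built, transcribed mutants of each subunit of a heterodimeric triplet polymerase ribozyme, each put through one triplicate in vitro selection round with frozen incubation at −7 °C, gel excision of extended constructs, streptavidin-bead capture and RT-PCR. Fitness is a logarithmic ratio of genotype enrichment to wild-type enrichment, from inverse-variance-weighted replicate averages, with the logarithm in base 2.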

Point of comparison: C35U C93G, “polymerase ribozyme fitness (log ratio)” value -3.19. Against it:
- C35U A39U A66C C79A G124U G143U G152U — lower, ≤ -4.2
- C35U A39U U55A C75G U82G C85U C125A — lower, ≤ -4.2
- C35U A40C C54A U90C C105A — lower, ≤ -4.2
- C35U A41C G58C G68U G86U C114A G140A — lower, ≤ -4.2
- C35U A41C U56A C76U G88U C105U — lower, ≤ -4.2
- C35U A41G C63U G80U C87A C103A G124U U148G — lower, ≤ -4.2
- C35U A41U G81A C85A G92A U109C A120U — lower, ≤ -4.2
- C35U A47G C87A A91U C93G C116U A119U — lower, ≤ -4.2
- C35U A47G U82A U101C C114U A115G — lower, ≤ -4.2
- C35U A49C C69A A110C C125U — lower, ≤ -4.2
- C35U A49C G59A C95U U104A G143C — lower, ≤ -4.2
- C35U A49G U53A C87U A89C C95U C132A A142C — lower, ≤ -4.2
- C35U A49U U56A G59C A91U — lower, ≤ -4.2
- C35U A52C C54G C76G C85U G140C — lower, ≤ -4.2
- C35U A52G — higher, -0.53
- C35U A52G C116A G124A — lower, ≤ -4.2
- C35U A60C C69U C93A A98U C103G G126U G143C U144C — lower, ≤ -4.2
- C35U A60G C95U A115U U144G — lower, ≤ -4.2
- C35U A60G G136U — within 0.2 log units, -3.08
- C35U A64C A89U A91U U101G A142C — lower, ≤ -4.2
- C35U A66G G80C C103A U145G — lower, ≤ -4.2
- C35U A73C A91G U102G U139C G140U — lower, ≤ -4.2
- C35U A91C — lower, ≤ -4.2
- C35U A91G G117U A142U — lower, ≤ -4.2
- C35U A91U G100A A115U — lower, ≤ -4.2
- C35U A91U G140U — lower, ≤ -4.2
- C35U A142G — higher, -1.79
- C35U C36G G70C U82A G83A C85U U90G C93A U135C — lower, ≤ -4.2
- C35U C43U C85A A97C C108G C149G — lower, ≤ -4.2
- C35U C51U G81C C85A A137C — lower, ≤ -4.2
- C35U C54G C85A — lower, -3.81
- C35U C54U C63G G80A C93U — lower, ≤ -4.2
- C35U C54U C79U G141A — lower, ≤ -4.2
- C35U C54U G71U C87U U151C — lower, ≤ -4.2
- C35U C54U U90G A91U C99U U144G A150U — lower, ≤ -4.2
- C35U C57G G68U A119G G140C — lower, ≤ -4.2
- C35U C57G G86U G133A — lower, -3.89
- C35U C57G U130G C132G — lower, ≤ -4.2
- C35U C57U — higher, 0.194
- C35U C57U C63U A73C C93U C99U — lower, ≤ -4.2
- C35U C63A — higher, -0.573
- C35U C69G U77A U111C G143U — lower, ≤ -4.2
- C35U C72U — higher, -0.649
- C35U C72U U82G C96U A106G G112A — lower, ≤ -4.2
- C35U C75A C85A U139A G143U — lower, ≤ -4.2
- C35U C79U G86A — lower, ≤ -4.2
- C35U C85A C105A — lower, ≤ -4.2
- C35U C85U A97U U111C U146C — lower, ≤ -4.2
- C35U C85U C95A U102G C125A U145G — lower, ≤ -4.2
- C35U C87A — lower, ≤ -4.2
- C35U C93A A110G C114U U134G G141C A147U — lower, ≤ -4.2
- C35U C95G C108U A122G U145A — lower, ≤ -4.2
- C35U C95G G100A — lower, ≤ -4.2
- C35U C95G G100U G143C — lower, ≤ -4.2
- C35U C95U C108G A110U U134C G143C — lower, ≤ -4.2
- C35U C96A A97U C116U G117A A138C G140U — lower, ≤ -4.2
- C35U C116A C131G U139A U146G — lower, ≤ -4.2
- C35U C116U A120G — higher, -0.528
- C35U C125A U134C — higher, -0.129
- C35U G42C C76A C93A G117C — lower, ≤ -4.2
- C35U G42C U82G A110G C129U — lower, ≤ -4.2
- C35U G46C G84A C96U C108G G124A A142U — lower, ≤ -4.2
- C35U G50A A66C G67A — lower, ≤ -4.2
- C35U G50A C79G G88C — lower, ≤ -4.2
- C35U G50C C108A — lower, ≤ -4.2
- C35U G50U G83U C87A A115C C118G — lower, ≤ -4.2
- C35U G58U G70A U130G C132G — lower, ≤ -4.2
- C35U G58U G74A G80U G83A C116G — lower, ≤ -4.2
- C35U G59C — higher, 0.0057
- C35U G59C A60G C85U U104A A120U G128U A147G — lower, ≤ -4.2
- C35U G70A C76A C105A C129A G136U — lower, ≤ -4.2
- C35U G70A U90G U130G G133U — lower, ≤ -4.2
- C35U G74U G83C A107C G126A U148C — lower, ≤ -4.2
- C35U G81U G83C G143U U146C A150G — lower, ≤ -4.2
- C35U G84U A89G C93G A115G C118U G143A — lower, ≤ -4.2
- C35U G84U A89U A97G G143A — higher, -2.66
- C35U G86A A97U C116U C132G — lower, ≤ -4.2
- C35U G88C C103U — lower, ≤ -4.2
- C35U G92A C96G A98C — within 0.2 log units, -3.23
- C35U G94U — higher, -0.729
- C35U U44A G50A C54A G68C U90A A120C U144C — lower, ≤ -4.2
- C35U U44G C85U C116G C123A — lower, -3.89
